Reference: patent US20220025050A1 (OSE IMMUNOTHERAPEUTICS, published 2022)
Values belong to the binder of their own block, whether it stands above or below them.

Legend:
[1] = biological target: T1, biotinylated Human PD1 (AcroBiosystems, reference EP-101) (human, UniProt Q15116 in part, limits assumed, biotinylated); test: competition ELISA: PD-L1 immobilized, biotinylated PD-1 at fixed concentration, antibody varied
T1 construct: also called biotinylated recombinant human PD-1; recombinant biotinylated PD1 protein
Experimental: FIG. 8: Competition PD-1/PD-L1 or PD-L2 ELISA assay. […] (D): PD-1/PD-L2 antagonist activity. […] Similar protocol as PD-L1/PD-1 assay was used for revelation. In this experiment, the bifunctional molecule comprises a humanized anti-PD1 antibody having a heavy chain variable domain as disclosed in SEQ ID NO: 24 and a light chain variable domain as disclosed in SEQ ID NO:28.
Competitive ELISA assay was performed by PD-1:PD-L1 Inhibitor Screening ELISA Assay Pair (AcroBiosystems; USA; reference EP-101). In this assay, recombinant hPDL1 was immobilized on plastic at 2 μg/ml in PBS pH 7.4 buffer. […] Same ELISA protocol was performed to assess PDL2/PD1 antagonist activity by coating PD-L2 Fc recombinant protein (Sinobiological, #10292-H02H).

[2] = biological target: T2, recombinant hPD1 (Sino Biologicals, reference 10377-H08H) (human, UniProt Q15116 in part); test: ELISA: hPD-1 immobilized, anti-human Fc peroxidase
T2 construct: also called Human recombinant PD-1 protein; PD1-His recombinant protein

IC50 [1]: 0.351 µg/mL
B1: Humanized anti-PD1 (VH SEQ ID NO:24, VL SEQ ID NO:28) VL fusion to Type I-protein A (CD86) (other)
heavy: QIQLVQSGSELKKPGASVKVSCKASGYTFTHYAMNWVRQAPGQGLEWMGWINTNTGEPTYAQGFTGRFVFSLDTSVSTAYLQISSLKAEDTAVYYCAREREPGMDNWGQGTLVTVSSASTKGPSVFPLAPCSRSTSESTAALGCLVKDYFPEPVTVSWNSGALTSGVHTFPAVLQSSGLYSLSSVVTVPSSSLGTKTYTCNVDHKPSNTKVDKRV[human IgG4 Fc with S228P L445P (EU numbers) omitted here]
light: DVVMTQSPLSLPVTLGQPASISCRSSQSLVHANTNTYLEWYQQRPGQSPRLLIYKVSNRFSGVPDRFSGSGSGTDFTLKISRVEAEDVGVYYCFQGTHVPNTFGQGTKLEIKRTVAAPSVFIFPPSDEQLKSGTASVVCLLNNFYPREAKVQWKVDNALQSGNSQESVTEQDSKDSTYSLSSTLTLSKADYEKHKVYACEVTHQGLSSPVTKSFNRGECGGGGSGGGGSGGGGSAPLKIQAYFNETADLPCQFANSQNQSLSELVVFWQDQENLVLNEVYLGKEKFDSVHSKYMGRTSFDSDSWTLRLHNLQIKDKGLYQCIIHHKKPTGMIRIHQMNSELSVLANFSQPEIVPISNITENVYINLTCSSIHGYPEPKKMSVLLRTKNSTIEYDGVMQKSQDNVTELYDVSISLSVSFPDVTSNMTIFCILETDKTRLLSSPFSIELEDPQPPPDH
notes: Bifunctional molecule; also called Anti-PD1 fused to Type I-protein A (CD86), VL fusion

IC50 [1]: 0.355 µg/mL
B2: Humanized anti-PD1 (VH SEQ ID NO:24, VL SEQ ID NO:28) VL fusion to Type II-protein B (4-1BBL) (other)
heavy: B1 heavy
light: DVVMTQSPLSLPVTLGQPASISCRSSQSLVHANTNTYLEWYQQRPGQSPRLLIYKVSNRFSGVPDRFSGSGSGTDFTLKISRVEAEDVGVYYCFQGTHVPNTFGQGTKLEIKRTVAAPSVFIFPPSDEQLKSGTASVVCLLNNFYPREAKVQWKVDNALQSGNSQESVTEQDSKDSTYSLSSTLTLSKADYEKHKVYACEVTHQGLSSPVTKSFNRGECGGGGSGGGGSGGGGSREGPELSPDDPAGLLDLRQGMFAQLVAQNVLLIDGPLSWYSDPGLAGVSLTGGLSYKEDTKELVVAKAGVYYVFFQLELRRVVAGEGSGSVSLALHLQPLRSAAGAAALALTVDLPPASSEARNSAFGFQGRLLHLSAGQRLGVHLHTEARARHAWQLTQGATVLGLFRVTPEIPAGLPSPRSE
notes: Bifunctional molecule; also called Anti-PD1 fused to Type II-protein B (4-1BBL), VL fusion

IC50 [1]: 0.307 µg/mL
B3: Humanized anti-PD1 (VH SEQ ID NO:24, VL SEQ ID NO:28) VL fusion to Type II-protein A (OX40L) (other)
heavy: B1 heavy
light: DVVMTQSPLSLPVTLGQPASISCRSSQSLVHANTNTYLEWYQQRPGQSPRLLIYKVSNRFSGVPDRFSGSGSGTDFTLKISRVEAEDVGVYYCFQGTHVPNTFGQGTKLEIKRTVAAPSVFIFPPSDEQLKSGTASVVCLLNNFYPREAKVQWKVDNALQSGNSQESVTEQDSKDSTYSLSSTLTLSKADYEKHKVYACEVTHQGLSSPVTKSFNRGECGGGGSGGGGSGGGGSQVSHRYPRIQSIKVQFTEYKKEKGFILTSQKEDEIMKVQNNSVIINCDGFYLISLKGYFSQEVNISLHYQKDEEPLFQLKKVRSVNSLMVASLTYKDKVYLNVTTDNTSLDDFHVNGGELILIHQNPGEFCVL
notes: Bifunctional molecule; also called Anti-PD1 fused to Type II-protein A (OX40L), VL fusion

EC50 [2]: 0.00518 µg/mL
B4: Chimeric anti-PD1 fused on its heavy chain to Cytokine-protein A (IL-7) (other, not shown: small tags and cut ends)
heavy: QIQLVQSGPELKKPGETVKISCKASGYTFTHYGMNWVKQAPGKGLKWMGWINTNTGEPTYAEEFKGRFAFSLETSASAAFLQINNLKNEDTATYFCAKEREPGMDSWGQGTSVTVSSASTKGPSVFPLAPCSRSTSESTAALGCLVKDYFPEPVTVSWNSGALTSGVHTFPAVLQSSGLYSLSSVVTVPSSSLGTKTYTCNVDHKPSNTKVDKRV[human IgG4 Fc with S228P L445P (EU numbers) omitted here]DCDIEGKDGKQYESVLMVSIDQLLDSMKEIGSNCLNNEFNFFKRHICDANKEGMFLFRAARKLRQFLKMNSTGDFDLHLLKVSEGTTILLNCTGQVKGRKPAALGEAQPTKSLEENKSLKEQKKLNDLCFLKRLLQEIKTCWNKILMGTKEH
light: DVLLTQTPLSLPVSLGDQASISCRSSQNIVHANGNTYLEWYLQKPGQSPKLLIYKVSNRFSGVPDRFSGSGSGTDFTLKITRVEAEDLGVYYCFQGSHVPNTFGGGTKLEIKRTVAAPSVFIFPPSDEQLKSGTASVVCLLNNFYPREAKVQWKVDNALQSGNSQESVTEQDSKDSTYSLSSTLTLSKADYEKHKVYACEVTHQGLSSPVTKSFNRGEC
notes: Bifunctional molecule
